Data taken from the supplement of paper PMC11417369.
± gives the standard deviation of the averaged measurements. Some of the results follow.

Test system: PfAP2-EXP AP2 domain (GST-tagged)
Assay: gcPBM binding intensity (ln(normalized median fluorescence intensity)); higher = stronger DNA binding
In short: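 The binding buffer was 1× PBS containing 1% milk, 0.2 mg/ml BSA, 0.5% salmon testes DNA and 0.03% Triton X-100. In it, GST-tagged P. falciparum DNA-binding domains expressed in E. coli were applied for 1 h to an Agilent 4 × 180k array of primer-extended double-stranded 36-bp intergenic genomic probes plus negative controls. Binding intensity, read with Alexa488 anti-GST antibody and a 488 nm scan, is the highest Masliner-normalised natural-log median intensity across replicate spots of either probe orientation.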

Row | Sequence | gcPBM binding intensity (ln)
1 | AAAAATTAACAAAAGGTGCAAACAAATAGTGGTTTT [GTGCAC_site9998] | 8.865 ± 0.049
2 | CCAATACTGTTTAAATGTACAAGTAGGAGGTTAATT [XGTACX_site7260] | 8.78 ± 0.44
3 | TTTTTTTTTTATTTTGCACACTTCTAATTTAGTTGT [CACACA_site3429] | 8.87 ± 0.37
4 | AAAAAAGTAAAAAGTGCATGTAAAATATAAGTATCT [TGCATGCA_site55] | 9.23 ± 0.38
5 | GTTATTCTTAATTTTTGTACACATTTTTATATTATT [XGTACX_site7227] | 9.23 ± 0.45
6 | AAAAAAATTAAACACACACACACATATATATATATA [CACACA_site4718] | 10.1 ± 0.25
7 | GAACAAAAGGAATGTTGTACATAAAAAATGAAAAAT [XGTACX_site3929] | 9.02 ± 0.36
8 | ATATATATGTATATGTGTACTTATATTTGTCATTTT [XGTACX_site1317] | 8.46 ± 0.26
9 | AACATATTAATGTACACACACCCACGCACAAACAAA [CACACA_site7320] | 9.04 ± 0.62
10 | TGGTAATATCGATTCACACATATCAAAATAAAAAAA [CACACA_site4196] | 8.39 ± 0.38
11 | TAGGAGAAAAAAAAAAGTACCCACAACTATTATACT [XGTACX_site8195] | 8.61 ± 0.54
12 | TCCTAATGCTACCACACACACAAAAACAAATAATAA [CACACA_site2610] | 8.66 ± 0.52
13 | AGTATTATATATATATGTACATAATATACATATATA [XGTACX_site8514] | 8.34 ± 0.33
14 | TTATAAGATTTATGTACACACATATACACAGCTCTA [CACACA_site6481] | 8.38 ± 0.23
15 | GTTATACGCATCAACACACACATACAACGTGGTGTA [CACACA_site1188] | 8.35 ± 0.34
16 | ATGGAACTTAAAAATTGTACACATAAAATGGAGAAG [XGTACX_site1823] | 9.09 ± 0.39
17 | TAATTAATTTACATTTTAATTTTATACAAAATTTAT [CACACA_negctrl_site830] | 8.43 ± 0.62
18 | ACATATTTATATTCTACACACTTATACTATAATACA [CACACA_site7204] | 8.64 ± 0.37
19 | TATTAAAATATTTATACACACATAATTTTGATAAAT [CACACA_site4486] | 8.19 ± 0.43
20 | TGTCATTCCTCTTATTGTACAAAAATATTATAATAT [XGTACX_site1134] | 8.99 ± 0.61
21 | GCTATAAATACAGACGCACACATATACATACAGATA [CACACA_site5778] | 8.68 ± 0.4
22 | ATATACATAATATATAATATAAATATATATATGGAA [CACACA_negctrl_site906] | 8.12 ± 0.24

Row | Sequence | gcPBM binding intensity (ln)
23 | TGTTATTAGAAAAATGCACACCAAAAAAAAAAAAAA [CACACA_site8802] | 8.37 ± 0.54
24 | AATATATATATTAAATGTACATTACATAATTATATA [XGTACX_site3450] | 8.54 ± 0.43
25 | TTTTTTTTTTTAGACACATGCATTTTTATAATTTTC [TGCATGCA_site843] | 8.8 ± 0.39
26 | TAAATGAAAATATGTACACACTTGAAAACTTTTATG [CACACA_site7388] | 8.57 ± 0.49
27 | TGCAACAAAATAAACACACACACACTAGCACAAAAA [CACACA_site5805] | 8.75 ± 0.49
28 | AATATTTTGATGTGTACACATTAATACAGTTTTACA [CACACA_site5711] | 8.79 ± 0.31
29 | TATATATATTAACTTGTGCGCAAAAAGATATAATTT [GTGCAC_site9672] | 8.75 ± 0.3
30 | AAGAAATAAAAAAAACGTACATATATACATACATAC [XGTACX_site3980] | 8.98 ± 0.23
31 | TAGGATATTGAATAATGTACTTTATATATAATATAA [XGTACX_site7828] | 8.12 ± 0.28
32 | ATATGTATGTATGTCTCAAAATTTCATATTATATTA [CACACA_negctrl_site784] | 8.22 ± 0.43
33 | GTATATATGTATATGTGTACATATATTTTATAATAT [XGTACX_site5703] | 8.45 ± 0.12
34 | AAAAACGAAAAAAATACACACCTGAAAAGATATGTA [CACACA_site4644] | 8.33 ± 0.51
35 | TATATATAATATTATACACACATATCTGCATAATAT [CACACA_site4202] | 8.61 ± 0.33
36 | GGAATAACCAGACACACACACACATATATATATATA [CACACA_site3541] | 10.1 ± 0.5
37 | TGGAAAGTTATTAACACACACATATAAATATTTATA [CACACA_site6173] | 8.54 ± 0.35
38 | AGATCATAATATTATACACACATTATATATATGTAA [CACACA_site8419] | 8.6 ± 0.5
39 | AAGTACCATATAGGCACACATATATATATATATATA [CACACA_site3282] | 10.2 ± 0.34
40 | AAAAACCATTCGCACACACACATAATCTATAATATA [CACACA_site6782] | 8.69 ± 0.43
41 | TCCAATTCTTTATTTTGTACACATTATGTGCATATG [XGTACX_site6290] | 8.94 ± 0.36
42 | TTTTCTTGTAGTATAACAAAATATAGTAATATATAT [GTGCAC_negctrl_site609] | 8.44 ± 0.46
43 | GTTGTTATATAAAGGAGTACATAATAACACAAATAT [XGTACX_site615] | 8.96 ± 0.3
44 | AATCCTTCATATGTAGTGCATATTAACAAAATAAAA [GTGCAC_site9500] | 8.7 ± 0.33
